{"source": "paper PMC4336329", "about": "(PLoS ONE, 2015)", "note": "Out of some 310,000 compounds screened, about 14,000 (4.5%) showed an effect of 50% or more. The effect is printed as a negative number. The list shows a part of the results.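 Further: peak tail current of the secondary pulse compared with the same well before compound.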"}
{"target": "human ether-à-go-go-related gene (hERG) potassium channel (human, UniProt Q12809)", "sequence (Q12809 whole entry, looked up)": "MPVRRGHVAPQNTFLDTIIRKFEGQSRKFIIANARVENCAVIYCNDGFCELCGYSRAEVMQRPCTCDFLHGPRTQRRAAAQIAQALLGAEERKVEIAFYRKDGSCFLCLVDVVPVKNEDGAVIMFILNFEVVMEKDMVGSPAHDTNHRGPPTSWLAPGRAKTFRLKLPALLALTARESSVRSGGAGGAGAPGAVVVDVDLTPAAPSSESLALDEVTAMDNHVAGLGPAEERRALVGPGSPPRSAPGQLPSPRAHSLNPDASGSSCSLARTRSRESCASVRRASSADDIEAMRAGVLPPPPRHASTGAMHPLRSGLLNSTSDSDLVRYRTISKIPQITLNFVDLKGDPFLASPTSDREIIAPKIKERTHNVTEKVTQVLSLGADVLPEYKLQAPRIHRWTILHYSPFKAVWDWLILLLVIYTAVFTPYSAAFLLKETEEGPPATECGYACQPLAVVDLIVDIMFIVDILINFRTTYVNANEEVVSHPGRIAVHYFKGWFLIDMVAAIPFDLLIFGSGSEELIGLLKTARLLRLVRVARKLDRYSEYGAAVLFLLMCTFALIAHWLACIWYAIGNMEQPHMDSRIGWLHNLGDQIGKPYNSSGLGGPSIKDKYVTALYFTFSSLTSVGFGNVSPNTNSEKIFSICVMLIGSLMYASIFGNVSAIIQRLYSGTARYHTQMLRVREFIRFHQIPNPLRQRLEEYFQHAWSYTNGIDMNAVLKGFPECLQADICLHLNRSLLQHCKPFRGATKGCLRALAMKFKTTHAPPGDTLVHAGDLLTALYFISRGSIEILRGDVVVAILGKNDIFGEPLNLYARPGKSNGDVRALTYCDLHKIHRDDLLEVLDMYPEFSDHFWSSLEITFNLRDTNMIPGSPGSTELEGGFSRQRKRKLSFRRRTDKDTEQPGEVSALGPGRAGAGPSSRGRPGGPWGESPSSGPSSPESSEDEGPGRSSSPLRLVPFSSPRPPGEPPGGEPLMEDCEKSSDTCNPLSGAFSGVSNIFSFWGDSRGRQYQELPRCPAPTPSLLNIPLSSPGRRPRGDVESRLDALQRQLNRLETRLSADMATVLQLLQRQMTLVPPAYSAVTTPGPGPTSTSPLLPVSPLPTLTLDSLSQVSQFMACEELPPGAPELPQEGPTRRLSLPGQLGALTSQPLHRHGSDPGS", "test": "primary screen, population patch clamp on CHO cells stably expressing hERG", "units": {"hERG current change (%, negative = inhibition) at 10uM": "%"}}
{"smiles": "COc1ccc(CNC(=O)CCS(=O)(=O)c2ccc3c(c2)oc(=O)n3C)cc1", "hERG current change (%, negative = inhibition) at 10uM": 5.82}
{"smiles": "CCOC(=O)C1CCN(CCCSc2ccc(Cl)cc2)CC1.Cl", "hERG current change (%, negative = inhibition) at 10uM": -72.7}
{"smiles": "O=C(O)CC1(c2ccc(F)cc2)C2CC3CC(C2)CC1C3", "note": "(stereo not drawn)", "hERG current change (%, negative = inhibition) at 10uM": 22.3}
{"smiles": "CCc1c(C)c2ccc(OCC(=O)NCC3CCC(C(=O)O)CC3)c(C)c2oc1=O", "note": "(stereo not drawn)", "hERG current change (%, negative = inhibition) at 10uM": 18}
{"smiles": "CCCOc1ccc(N2C(=O)CC(NCC#N)C2=O)cc1", "note": "(stereo not drawn)", "hERG current change (%, negative = inhibition) at 10uM": 2.57}
{"smiles": "Cc1csc2c(N3CCN(C(=S)Nc4ccc(F)cc4F)CC3)ncnc12", "hERG current change (%, negative = inhibition) at 10uM": -26.8}
{"smiles": "COc1ccc(CNc2cccc3[nH]c(C(F)(F)F)nc23)cc1OC.Cl", "hERG current change (%, negative = inhibition) at 10uM": 8.88}
{"smiles": "COc1ccccc1CN1C(=O)[C@H]2Cc3c([nH]c4ccccc34)C(C)(C)N2C1=O", "hERG current change (%, negative = inhibition) at 10uM": 4.05}
{"smiles": "COc1ccc(OC)c(NC(=O)c2ccc3nc(-c4ccccc4)c(-c4ccccc4)nc3c2)c1", "hERG current change (%, negative = inhibition) at 10uM": 32.6}
{"smiles": "CCCC1CCC(C(=O)Nn2c(C)nc3ccccc3c2=O)CC1", "note": "(stereo not drawn)", "hERG current change (%, negative = inhibition) at 10uM": -24.1}
{"smiles": "CC1CCc2nc(NC(=O)Cc3cccs3)sc2C1", "note": "(stereo not drawn)", "hERG current change (%, negative = inhibition) at 10uM": 6.69}
{"smiles": "CCN(CC)S(=O)(=O)c1ccc(Cl)c(C(=O)NC2CCCC2)c1", "hERG current change (%, negative = inhibition) at 10uM": -15.1}
{"smiles": "Cc1nnc2c(NC(C)C)nc3ccccc3n12", "hERG current change (%, negative = inhibition) at 10uM": -26.8}
{"smiles": "Cn1c(SCc2ccccc2)nnc1-c1ccncc1", "hERG current change (%, negative = inhibition) at 10uM": -11.2}
{"smiles": "COc1ccc(-n2c(=O)c3c(C)c(C)sc3n(Cc3ccc(F)cc3)c2=O)c(OC)c1", "hERG current change (%, negative = inhibition) at 10uM": 0.784}
{"smiles": "Cc1cc(/C=C2\\SC(=S)NC2=O)c(C)n1-c1ccc(O)cc1", "hERG current change (%, negative = inhibition) at 10uM": 12.8}
{"smiles": "COc1ccc(-c2ccc3c(c2)S(=O)(=O)c2cccc(C(=O)NCc4ccccc4Cl)c2C3=O)cc1OC", "hERG current change (%, negative = inhibition) at 10uM": 15.3}
{"smiles": "COc1cc(/C=N\\Nc2nc(-c3ccc(C)cc3)c(NC(C)=O)s2)ccc1O", "hERG current change (%, negative = inhibition) at 10uM": -8.59}
{"smiles": "COc1ccc(CNC(=O)CN(Cc2ccco2)C(=O)CNS(=O)(=O)c2ccc(F)cc2)cc1", "hERG current change (%, negative = inhibition) at 10uM": -34.1}
{"smiles": "O=C(c1ccc(F)cc1)C(Cc1ccccc1)N1CCCCC1", "note": "(stereo not drawn)", "hERG current change (%, negative = inhibition) at 10uM": 1.82}
{"smiles": "Cc1c(C#N)c2ccccc2n1C", "hERG current change (%, negative = inhibition) at 10uM": 15.3}
{"smiles": "CCOc1ccc(NC(=O)COC(=O)c2cc(=O)c3ccccc3o2)cc1", "hERG current change (%, negative = inhibition) at 10uM": 15.2}
{"smiles": "CCc1nc(SCC(=O)NNC(=O)c2ccc(C)cc2)c2ccccc2n1", "hERG current change (%, negative = inhibition) at 10uM": 4.89}
{"smiles": "CCCCCc1ccc(-c2ccc(/C=C/C(N)=O)cc2)nc1", "hERG current change (%, negative = inhibition) at 10uM": 15.7}
{"smiles": "O=C(Cc1cccs1)Nc1nncs1", "hERG current change (%, negative = inhibition) at 10uM": 7.33}
{"smiles": "COc1ccc(NS(=O)(=O)c2cccc(C(=O)NNC(=O)CN3C(=O)NC(C)(C)C3=O)c2)cc1", "hERG current change (%, negative = inhibition) at 10uM": 12.5}
{"smiles": "O=S(=O)(Nc1ccc2c(c1)OCCO2)c1ccc(F)c(F)c1", "hERG current change (%, negative = inhibition) at 10uM": -21}
{"smiles": "COc1cc(C(=O)Nc2nc3ccc(S(C)(=O)=O)cc3s2)cc(OC)c1C", "hERG current change (%, negative = inhibition) at 10uM": 15.9}
{"smiles": "O=C(O)c1ccc(CNC(=O)C2CCCN2C(=O)OCc2ccccc2)cc1", "note": "(stereo not drawn)", "hERG current change (%, negative = inhibition) at 10uM": 7.03}
{"smiles": "Cc1ccc(OCCCCCN2CCOCC2)cc1", "hERG current change (%, negative = inhibition) at 10uM": 4.39}
{"smiles": "O=C(c1ccco1)N1CCN(C(=O)c2snc3ccc(Cl)cc23)CC1", "hERG current change (%, negative = inhibition) at 10uM": -30.2}
{"smiles": "Cc1cc(Br)c(NC(=O)CN2CC=C(c3ccccc3)CC2)c(Br)c1", "hERG current change (%, negative = inhibition) at 10uM": 15.3}
{"smiles": "CCOc1ccc2nc(SCC(=O)c3ccc(O)cc3O)sc2c1", "hERG current change (%, negative = inhibition) at 10uM": 14.5}
{"smiles": "CC1CCc2sc(C(=O)N(C)CC(=O)Nc3cccc(F)c3)cc2C1", "note": "(stereo not drawn)", "hERG current change (%, negative = inhibition) at 10uM": -11.3}
{"smiles": "CC1(C)NC(=O)N(CCCCOc2ccc3c(c2)CCC3)C1=O", "hERG current change (%, negative = inhibition) at 10uM": 1.84}
{"smiles": "Cc1ccc(CCNC(=O)CCS(=O)(=O)c2ccc(Br)cc2)cc1", "hERG current change (%, negative = inhibition) at 10uM": -6.65}
{"smiles": "N#Cc1cc2c(nc1SCc1ccc(Cl)cc1)CCCC2", "hERG current change (%, negative = inhibition) at 10uM": 13.2}
{"smiles": "O=C(CCl)NCc1c(Cl)cccc1-n1cccc1", "hERG current change (%, negative = inhibition) at 10uM": 3.87}
{"smiles": "CCC(C)Sc1nnc(CNC(=O)C23CC4CC(CC(C4)C2)C3)n1C1CCCCC1", "note": "(stereo not drawn)", "hERG current change (%, negative = inhibition) at 10uM": 6.12}
{"smiles": "C/C(N)=C(/C#N)C(=O)CSc1nc2ccccc2c(=O)n1CCCOC(C)C", "hERG current change (%, negative = inhibition) at 10uM": -21.2}
{"smiles": "CCOC(=O)C1=C(C)NC(C)=C(C(=O)OCC)C1C(=O)OCC(=O)N1CC(C)OC(C)C1", "note": "(stereo not drawn)", "hERG current change (%, negative = inhibition) at 10uM": 17.5}
{"smiles": "O=C(Nc1ccc(Cl)cc1N1CCOCC1)C1CCCCC1", "hERG current change (%, negative = inhibition) at 10uM": -4.12}
{"smiles": "CC(C)(C)OC(=O)NNC(=S)NC1CCCCC1", "hERG current change (%, negative = inhibition) at 10uM": 21.4}
{"smiles": "CCOC(=O)/C(C#N)=C/c1ccc(SC)cc1", "hERG current change (%, negative = inhibition) at 10uM": 20.9}
{"smiles": "Cc1cccc(OCc2nnc(SCC(=O)N3CCN(c4ccccc4)CC3)o2)c1C", "hERG current change (%, negative = inhibition) at 10uM": -5.21}
